Results published in PubChem BioAssay AID1460 (National Center for Advancing Translational Sciences (NCATS), 2008).
Out of some 270,000 compounds screened, about 5,800 (2.1%) were called active. Inconclusive means that the source gave no clear call. Such entries were picked first, then a sample of the others. The call rests on the fitted dose curve; in most records, active means well fitted inhibition curve with a large enough effect; inconclusive means small, poorly fitted or top-dose-only effect; inactive means flat fitted curve, though single readings scatter. A potency beside an inconclusive call is a rough fit, not a confirmed value.

molecular target: Microtubule-associated protein tau (Homo sapiens) (UniProt P10636); experiment: qHTS for Inhibitors of Tau Fibril Formation, Thioflavin T Binding; details: recombinant tau K18 P301L, heparin-induced fibrillization, ThT fluorescence; series mostly up to 57.4 µM; further: nearly all actives have a fitted effect of over 55% in size
Chain of UniProt P10636 (P10636 whole entry, looked up): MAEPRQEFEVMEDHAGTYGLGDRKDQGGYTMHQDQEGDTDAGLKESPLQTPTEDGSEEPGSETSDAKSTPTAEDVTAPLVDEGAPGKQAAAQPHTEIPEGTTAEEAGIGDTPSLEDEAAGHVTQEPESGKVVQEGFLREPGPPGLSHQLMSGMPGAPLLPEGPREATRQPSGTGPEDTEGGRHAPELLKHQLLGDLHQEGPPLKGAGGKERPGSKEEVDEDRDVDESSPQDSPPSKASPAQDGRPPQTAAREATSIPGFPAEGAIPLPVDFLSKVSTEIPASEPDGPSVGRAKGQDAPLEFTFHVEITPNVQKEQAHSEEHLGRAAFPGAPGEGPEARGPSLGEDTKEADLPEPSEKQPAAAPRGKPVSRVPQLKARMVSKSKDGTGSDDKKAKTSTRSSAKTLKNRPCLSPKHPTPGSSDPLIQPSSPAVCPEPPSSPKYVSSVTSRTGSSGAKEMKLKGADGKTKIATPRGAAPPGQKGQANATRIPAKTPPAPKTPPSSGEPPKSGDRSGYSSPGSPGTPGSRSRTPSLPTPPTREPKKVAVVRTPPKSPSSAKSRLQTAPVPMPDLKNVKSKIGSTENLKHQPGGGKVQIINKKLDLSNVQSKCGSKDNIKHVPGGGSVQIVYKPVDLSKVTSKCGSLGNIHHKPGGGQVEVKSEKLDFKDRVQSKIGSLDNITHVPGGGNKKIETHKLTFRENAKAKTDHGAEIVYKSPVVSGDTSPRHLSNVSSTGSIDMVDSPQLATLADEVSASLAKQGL
Method in brief: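 Using a mix of unlabeled (15 uM) and Alexa 594-labeled (0.24 uM) tau K18 P301L, heparin-triggered fibrillization over 6 hr at 37 C was scored by ThT fluorescence.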
On the % scale 0 is the no-effect control and ±100 the full control effect; potency means the concentration at half of the fitted maximal effect; tags describe the fitted curve by direction and shape.

SMILES	Potency	activity, negative = inhibition
NC(=O)COC(=O)CNC(=O)c1sc2ccccc2c1Cl	inactive	
Cc1sc2nc(SCC(=O)NCc3ccco3)n(CCc3ccccc3)c(=O)c2c1C	inactive	
CCN(c1ccccc1)S(=O)(=O)c1ccc2[nH]cc(C(=O)NC3CCCCC3)c(=O)c2c1	inconclusive: 44.7 µM [activator, single point]	
Cc1nc2c(C(=O)NCc3ccccc3Cl)c[nH]n2c(=O)c1Cc1cccc(Cl)c1	inconclusive: 31.6 µM [inhibitor, partial curve]	
CCOC(=O)C1CCN(c2c(C(=O)c3ccc(OCC)cc3)cnc3ccc(OC)cc23)CC1	inconclusive: 39.8 µM [inhibitor, single point]	
CC(=O)c1cc(C(=O)c2ccccc2)sc1Nc1ccccc1	inconclusive: 11.2 µM [inhibitor, partial curve]	
Cc1cccc(NC(=O)c2oc3c(c2C)-c2[nH]ncc2CC3)c1C	inconclusive: 39.8 µM [inhibitor, single point]	
Cc1nnc(NN)n(N)c1=O	inconclusive: 12.6 µM [inhibitor, partial curve]	
COC(=O)c1ccc(NC(=O)CCc2c(C)nc3c(c(C)nn3-c3ccc(C)cc3)c2C)cc1	inconclusive: 2.82 µM [inhibitor, full curve]	
CCOC(=O)C1=C(C)OC(N)=C(C#N)C1c1cc2c(cc1[N+](=O)[O-])OCO2 (configuration not stated)	active: 28.2 µM	
CCc1nn2c(-c3ccccc3OC)ccnc2c1-c1ccc(F)cc1	inconclusive: 22.4 µM [inhibitor, partial curve]	
CCn1c(=NC(=O)c2ccc(S(=O)(=O)N3CCCCC3)cc2)sc2cccc(OC)c21	inactive	
CC1CCc2c(sc3ncn(CC(=O)N=Nc4c(O)[nH]c5ccccc45)c(=O)c23)C1 (configuration not stated)	inconclusive: 14.1 µM [inhibitor, partial curve]	
CC1(C)Cc2c(C#N)c(NCCc3ccccc3)nc(-c3ccco3)c2CO1	inconclusive: 22.4 µM [inhibitor, partial curve]	
COc1ccc(-c2cc(C(=O)N3CCN(c4ccccc4)CC3)no2)cc1OC	inconclusive: 14.1 µM [inhibitor, partial curve]	
Cc1cccc(N2CCN(C(=O)c3cc4c(=O)n(C)c5ccccc5c4n3C)CC2C)c1 (configuration not stated)	inconclusive: 17.8 µM [inhibitor, partial curve]	
CC(=O)C1=C(C)NC(SCC(=O)c2ccc(C)cc2)=C(C#N)C1c1ccco1 (configuration not stated)	active: 15.8 µM	
COc1ccc(OCC(=O)Nc2cccc3cccnc23)cc1	inconclusive: 20 µM [inhibitor, partial curve]	
CCOc1ccccc1NC(=O)Cc1coc2c(C)c(C)ccc12	inconclusive: 14.1 µM [inhibitor, partial curve]	
Cc1noc(C)c1CSc1nc2sc(C)c(C)c2c(=O)n1C1CCCC1	inconclusive: 11.2 µM [inhibitor, partial curve, poor fit]	
O=C1[C@H]2[C@H]3[C@H](O)[C@H](O)C/C(=N/OCc4ccccc4)[C@@H]3CC[C@@H]2C(=O)N1c1cccc(Oc2ccccc2)c1		inactive: -2.15% [at 11.5 µM]
O=C(Oc1ccccc1C(=O)Nc1ccccc1)c1ccccc1Br	inconclusive: 28.2 µM [inhibitor, single point]	
O=[N+]([O-])c1ccc2nc(/C=C/c3ccc(Cl)cc3)[nH]c2c1	active: 12.6 µM	

SMILES	Potency	activity, negative = inhibition
COC(=O)c1ccc(S(=O)(=O)N2CCCCCC2)cc1	inactive	
CCC(=O)Nc1cccc(C(=O)/C=C/c2ccc(F)cc2)c1	inconclusive: 31.6 µM [inhibitor, single point]	
Cc1nc(SCC(=O)c2ccc(Cl)cc2)c([N+](=O)[O-])[nH]1	inconclusive: 17.8 µM [inhibitor, partial curve]	
O=C(COc1ccc2ccccc2c1)NNC(=O)c1ccc([N+](=O)[O-])cc1	inconclusive: 0.562 µM [inhibitor, full curve]	
COc1ccc(OC)c(/C=C/C(=O)c2ccc(Cl)cc2)c1	inconclusive: 25.1 µM [inhibitor, partial curve]	
CC(=O)c1sc2nc(-c3ccco3)ccc2c1N	active: 7.08 µM	
CCOC(=O)N1CCc2c(sc(NCc3sccc3C)c2C(=O)Nc2cc(OC)ccc2OC)C1	inconclusive: 22.4 µM [inhibitor, partial curve]	
CCOc1ccccc1C(=O)NCC(=O)O	inactive	
NNC(=O)c1ccc(COCC(F)(F)C(F)F)cc1	inconclusive: 12.6 µM [inhibitor, partial curve, poor fit]	
Cc1c(C(=O)Nc2ccc(-c3nnc4n3CCCCC4)cc2)oc2c1ccc1ccccc12	inconclusive: 20 µM [inhibitor, single point]	
O=C(COC(=O)Cc1ccc(S(=O)(=O)N2CCOCC2)s1)Nc1ccc2c(c1)OCO2	inactive	
CC(=O)c1ccc(NC(=O)CN2C(=O)COc3ccc(Cl)cc32)cc1	inconclusive: 44.7 µM [inhibitor, single point]	
Cc1ccc(N(CC(=O)Nc2ccc(C)c(Cl)c2)S(=O)(=O)c2cccs2)cc1	inactive	
CC1CCN(C2CC(=O)N(c3ccccc3)C2=O)CC1 (configuration not stated)	inactive	
OCC1OC(C#Cc2ccccc2)C=CC1OCc1ccccc1 (configuration not stated)		inactive: -6.43% [at 11.5 µM]
COc1cccc(C(=O)Nc2ccc(N3CCN(S(C)(=O)=O)CC3)cc2)c1	inconclusive: 3.98 µM [inhibitor, partial curve]	
COCCn1c(C)cc(O)c(C(c2ccc(F)cc2)N2CCC(C)CC2)c1=O (configuration not stated)	inconclusive: 15.8 µM [inhibitor, single point]	
O=S(=O)(c1ccccc1)N1N=C(c2cccs2)CC1c1ccc(F)cc1 (configuration not stated)	inactive	
CC1=NN(c2ccc(Cl)cc2)C(=O)C1	inconclusive: 7.94 µM [inhibitor, partial curve, poor fit]	
COc1ccc(C(=O)/C=C/Nc2ccc([N+](=O)[O-])cc2)cc1	inconclusive: 1 µM [inhibitor, full curve]	
CCOc1ccc(-n2nc3c(=S)[nH]nc(C)c3c2C)cc1	inactive	
Cc1ccc(NC(=O)C2CCCN(S(=O)(=O)c3c(C)noc3/C=C/N(C)C)C2)cc1F (configuration not stated)	inconclusive: 35.5 µM [inhibitor, partial curve]	
O=C(C1CCC1)N1CCc2cc(S(=O)(=O)NC3CCCC3)ccc21	inactive	

SMILES	Potency	activity, negative = inhibition
COC(=O)c1sccc1-c1ccc(C(=O)Nc2ccccc2)o1	inconclusive: 3.98 µM [inhibitor, partial curve, poor fit]	
NS(=O)(=O)c1ccc(Oc2ccc(S(N)(=O)=O)cc2)cc1	inactive	
Cc1ccc(NC(=O)COc2ccc3oc4c(c3c2)CCCC4)cc1C	inconclusive: 0.708 µM [inhibitor, full curve]	
COc1cccc(Nc2nc(-c3sc(NC(=O)CC(C)C)nc3C)cs2)c1	active: 15.8 µM	
Cc1nc2c(ccc3nc(NC(=O)C(c4ccccc4)c4ccccc4)sc32)s1	inactive	
COc1ccc(N2C(=O)C3C(C2=O)C(C(=O)c2ccccc2)N2CCCC32)cc1 (configuration not stated)	inconclusive: 31.6 µM [inhibitor, single point]	
O=C(Nc1cc(Cl)cc(Cl)c1)c1ccc(F)c(S(=O)(=O)N2CCN(c3ccccc3F)CC2)c1	inactive	
Cc1cccc(CSc2nnc3[nH]c(=O)cc(-c4ccccc4)n23)c1	inconclusive: 11.2 µM [inhibitor, partial curve]	
c1cncc(-c2nc(NCCCN3CCOCC3)c3c4c(sc3n2)CCC4)c1	inconclusive: 14.1 µM [inhibitor, partial curve]	
CC(=O)c1ccc(N2CCN(c3ncnc4c3cnn4-c3cc(Cl)ccc3C)CC2)cc1	inconclusive: 1.26 µM [inhibitor, full curve]	
COc1ccccc1N1CCN(C(=O)CSc2ccc3c(C)cc(C)nc3n2)CC1	inconclusive: 28.2 µM [inhibitor, partial curve]	
Cc1ccccc1OCC(=O)OCc1cc(=O)n2nc(-c3cccs3)sc2n1	inconclusive: 0.794 µM [inhibitor, partial curve]	
C=CCOC(=O)C1=C[C@H](c2cn(C(C)=O)c3ccccc23)C[C@H](OCc2ccc(CO)cc2)O1	inconclusive: 17.8 µM [inhibitor, single point]	
CC(=O)N(C)c1ccc(NC(=S)Nc2cccc3ccccc23)cc1	inconclusive: 22.4 µM [inhibitor, partial curve]	
Cc1ccc(OCC(=O)Nc2cccc(C(=O)OCc3cc(=O)n4c(C)csc4n3)c2)cc1	inconclusive: 0.501 µM [inhibitor, full curve]	
Cc1ccccc1NC1=C(Cl)C(=O)OC1OC(=O)c1ccco1 (configuration not stated)	inconclusive: 22.4 µM [inhibitor, partial curve]	
NC(=O)[C@@H]1CCCNc2c(I)cc([N+](=O)[O-])cc2C(=O)N[C@@H](CO)C(=O)N[C@@H](Cc2ccc(O)cc2)C(=O)N1	inconclusive: 31.6 µM [inhibitor, single point]	
N#C[C@H](Cc1ccc(O)cc1)c1ccc(O)cc1	inactive	
COc1ccc(C(=O)N(Cc2cc(OC)c(OC)c(OC)c2)C2CCS(=O)(=O)C2)cc1Cl (configuration not stated)	inactive	
COc1ccc(CCNC(=S)N2CCC(Cc3ccccc3)CC2)cc1OC	inconclusive: 14.1 µM [inhibitor, single point]	
CCOC(=O)c1cc(C(=O)c2ccccc2O)cn2c(=O)c3c(C)c(C)sc3nc12	inconclusive: 31.6 µM [inhibitor, partial curve]	
